Measured values as given in PubChem BioAssay AID2147 (National Center for Advancing Translational Sciences (NCATS), 2009).
About 3,600 (1.6%) of roughly 230,000 compounds were called active. This list was built around the results that the source calls inconclusive (neither active nor inactive); the mix of calls is not that of the screen. The call rests on the fitted dose curve; in most records, active means well fitted inhibition curve with a large enough effect (not every such curve was filed as active); inconclusive means small, poorly fitted or top-dose-only effect, or another doubt; inactive means no such curve, though single readings can be large or run the other way. Potencies of inconclusive entries are doubtful fits and often do not repeat.

Target: Lysine-specific demethylase 4E (Homo sapiens) (UniProt B2RXH2)
Assay: qHTS Assay for Inhibitors of Human Jumonji Domain Containing 2E (JMJD2E)
Details: JMJD2E catalytic domain, FDH-coupled NADH fluorescence (FDH is formaldehyde dehydrogenase); series mostly up to 57.1 µM; activity change, negative = inhibition: at the top concentration
Further: nearly all actives have a fitted effect of over 50% in size.
Potency means the concentration at half of the fitted maximal effect; tags describe the fitted curve by direction and shape.
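Wherever activity change, negative = inhibition is given: 0% = wells with enzyme and -100% = buffer wells without enzyme.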

Chain of UniProt B2RXH2 (B2RXH2 whole entry, looked up, the tested form may be a part): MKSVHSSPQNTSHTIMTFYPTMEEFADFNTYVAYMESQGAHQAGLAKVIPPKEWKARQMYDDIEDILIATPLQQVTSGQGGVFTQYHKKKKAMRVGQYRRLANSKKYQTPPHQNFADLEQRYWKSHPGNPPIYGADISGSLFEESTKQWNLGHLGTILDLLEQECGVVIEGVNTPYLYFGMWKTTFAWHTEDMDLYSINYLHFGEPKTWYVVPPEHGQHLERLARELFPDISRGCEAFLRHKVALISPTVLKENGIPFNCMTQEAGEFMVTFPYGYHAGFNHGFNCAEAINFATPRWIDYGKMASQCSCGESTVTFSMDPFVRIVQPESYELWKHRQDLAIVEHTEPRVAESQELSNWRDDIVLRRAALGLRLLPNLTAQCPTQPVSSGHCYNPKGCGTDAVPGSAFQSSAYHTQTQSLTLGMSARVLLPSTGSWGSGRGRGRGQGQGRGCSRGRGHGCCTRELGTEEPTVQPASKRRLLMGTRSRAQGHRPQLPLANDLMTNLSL

| SMILES | activity change, negative = inhibition | Potency |
| --- | --- | --- |
| CCN(CC)S(=O)(=O)c1ccc(NC(=S)NC(=O)C(C)C)cc1 | inactive: -22.9% |  |
| C=CCN=C1CCCc2c1[nH]c1ccc(C)cc21 |  | inconclusive: 31.6 µM [inhibitor, partial curve] |
| COc1ccc(-c2nn(C)c(=O)c3ccccc23)cc1NC(=O)COc1ccc(C)cc1 |  | inconclusive: 39.8 µM [inhibitor, single point] |
| CC1=NN(c2nc(-c3ccc(Cl)cc3)cs2)C(=O)C1 |  | active: 25.1 µM |
| Cc1oc2c(cc(NS(=O)(=O)c3ccc4c5c(cccc35)C(=O)N4)c3ccccc32)c1C(=O)OC(C)C |  | inconclusive: 25.1 µM [inhibitor, single point] |
| CCOC(=O)C(C)Oc1cccc2c(=O)n(CC(=O)N3CCN(C(=O)OCC)CC3)ccc12 (stereo not given) |  | inconclusive: 25.1 µM [inhibitor, single point] |
| COc1ccc(C(=O)Oc2cccnc2)cc1OC |  | inconclusive: 31.6 µM [inhibitor, single point] |
| N#Cc1c(OCC(=O)c2ccccc2)nc2c(c1-c1ccco1)CCc1ccccc1-2 |  | inconclusive: 17.8 µM [inhibitor, partial curve] |
| COc1ccc2c(c1OC)C(=O)N(c1ncn[nH]1)C2 |  | inconclusive: 31.6 µM [inhibitor, partial curve] |
| COc1ccc(O)c(/C=N/NC(=O)c2c(C)nnn2-c2nonc2N)c1 |  | inconclusive: 25.1 µM [inhibitor, single point] |
| COc1ccc(/C=N/NC(=O)c2ccccc2O)cc1Cn1cc(Cl)cn1 |  | inconclusive: 35.5 µM [inhibitor, partial curve] |
| CCn1c(O)c(/C=N/N=C/c2ccc(OC)cc2)c2cc(C3=NNC(=O)CC3)ccc21 |  | inconclusive: 28.2 µM [inhibitor, single point] |
| COc1c(C)cc(C(=O)C2CCCN(C(=O)c3snnc3C)C2)cc1C (stereo not given) | inactive: -5.92% |  |
| O=C(NCc1cccs1)c1nc2c(nnn2Cc2ccccc2Cl)c(=O)[nH]1 | inactive: 4.13% |  |
| COc1ccc2cc3cc(C(=O)NCc4ccc5c(c4)OCO5)oc3nc2c1 |  | inconclusive: 25.1 µM [inhibitor, partial curve] |
| Oc1ccc(/C=N/N(Cc2ccccc2)c2ccccc2)c(O)c1O |  | active: 20 µM |
| O=C(Nc1ccccn1)c1cc(-n2cnnc2)ccc1Cl | inactive: 4.09% |  |
| Nc1cc(-c2ccc(Br)cc2)nc2cc(-c3ccccc3)nn12 |  | inconclusive: 28.2 µM [inhibitor, partial curve] |
| COc1cccc(-n2c(SCC(=O)O)nnc2-c2cccnc2)c1 | inactive: 1.44% |  |
| CCCc1cc(-c2n[nH]c(=S)n2CC(C)C)cs1 | inactive: -20.4% |  |
